# The list shows a part of the results.
# Tests used:
# HSkMC = human skeletal muscle cells; test: cytotoxicity call (relative viability < 0.9); conditions: 10 µM
# HepG2 = test: cytotoxicity call (relative viability < 0.9); conditions: 10 µM
# S. aureus RN4220 = test: growth inhibition call (relative growth <= 0.2); conditions: 50 µM
Compound,cytotoxicity call (HSkMC),cytotoxicity call (HepG2),growth inhibition call (S. aureus RN4220)
CCN1C(=O)[C@@H]2CN(C(C)=O)C[C@@H]2C12CCN(C(=O)COC)CC2,inactive,inactive,inactive
CN([NH2+][O-])c1ccc(O)c(O)c1,inactive,inactive,inactive
COc1ccc(NC(=O)Nc2ccc3c(c2)C(=O)N([C@@H](C)CO)C[C@@H](C)[C@H](CN(C)S(=O)(=O)c2ccc(C)cc2)OCCCC[C@@H](C)O3)cc1,inactive,inactive,inactive
C[C@@H]1CN([C@@H](C)CO)C(=O)CCCn2nncc2CO[C@H]1CN(C)C(=O)Nc1ccc(N2CCCCC2)cc1,inactive,inactive,inactive
Cc1ccc(OC(=O)N(C)C[C@H]2OCc3ccccc3-c3ccccc3C(=O)N([C@@H](C)CO)C[C@H]2C)cc1,inactive,inactive,inactive
C[C@H](CO)N1C[C@H](C)[C@@H](CN(C)Cc2ccc(C(F)(F)F)cc2)Oc2ccc(NS(C)(=O)=O)cc2CC1=O,inactive,inactive,inactive
COCCOC(=O)N1C(=O)[C@@]2(c3cc(C#CC4=CCCCC4)ccc31)[C@H](c1ccc(OCCO)cc1)N1[C@H](c3ccccc3)[C@H](c3ccccc3)OC(=O)[C@H]1[C@@H]2C(=O)NC[C@H](O)c1ccccc1,inactive,inactive,inactive
C[C@@H]1CCCCO[C@@H](CN(C)Cc2ccc(Cl)c(Cl)c2)[C@H](C)CN([C@H](C)CO)C(=O)c2cc(NS(=O)(=O)c3ccccc3)ccc2O1,active,active,inactive
C[C@@H]1CCCCO[C@@H](CN(C)C(=O)CCC(F)(F)F)[C@H](C)CN([C@@H](C)CO)C(=O)c2cc(NS(=O)(=O)c3ccc(F)cc3)ccc2O1,inactive,inactive,inactive
CN1C(=O)c2cc(NS(=O)(=O)c3cccc(F)c3)ccc2OC[C@@H]2O[C@@H](CC(=O)NCCN3CCCCC3)CC[C@@H]21,inactive,inactive,inactive
C[C@H](CO)N1C[C@H](C)[C@H](CN(C)Cc2ccc(Oc3ccccc3)cc2)Oc2ccc(NC(=O)Cc3ccccc3)cc2C1=O,inactive,inactive,inactive
O=C(CNC(=O)c1ccc(Cl)cc1)NO,inactive,inactive,inactive
CCNC(=O)c1cc2c(c(-c3cccc(-c4cccc(F)c4)c3)n1)[C@@H](CCO)N([S@](=O)C(C)(C)C)C2,inactive,inactive,inactive
Cc1noc(C)c1S(=O)(=O)N(C)C[C@@H]1Oc2c(NS(=O)(=O)c3cn(C)cn3)cccc2C(=O)N([C@H](C)CO)C[C@H]1C,inactive,inactive,inactive
COc1ccc(S(=O)(=O)N[C@@H]2C=C[C@@H](CC(=O)N3CCN(c4ccccc4)CC3)O[C@H]2CO)cc1,inactive,inactive,inactive
Cc1cc(S(C)(=O)=O)c(S(C)(=O)=O)cc1C(=O)NC(=N)N,inactive,inactive,inactive
Cc1ccc(S(=O)(=O)N(C)C[C@@H]2Oc3ccc(NC(=O)Nc4ccc(C(F)(F)F)cc4)cc3CC(=O)N([C@@H](C)CO)C[C@@H]2C)cc1,active,active,inactive
COCC(=O)Nc1ccc2c(c1)OC[C@@H](C)N(Cc1ccccc1OC)C[C@@H](C)[C@@H](OC)CN(C)C2=O,inactive,inactive,inactive
C[C@@H]1CN([C@@H](C)CO)C(=O)c2cc(N(C)C)ccc2O[C@@H](C)CCCCO[C@H]1CN(C)S(C)(=O)=O,inactive,inactive,inactive
COCCNC(=O)C[C@H]1CC[C@@H]2[C@@H](COc3ccc(NS(=O)(=O)c4ccc(Cl)cc4)cc3C(=O)N2C)O1,inactive,inactive,inactive
COc1ccc(CN(CCN(C)C)c2ccccn2)cc1.O=C(O)C=CC(=O)O,inactive,inactive,inactive
C[C@H]1CN([C@@H](C)CO)C(=O)Cc2cc(NC(=O)CCC(F)(F)F)ccc2O[C@@H]1CN(C)Cc1ccc(-c2ccccc2)cc1,inactive,active,inactive
O=C(C[C@@H]1CC[C@H]2[C@@H](COC[C@@H](O)CN2S(=O)(=O)c2ccccc2Cl)O1)NCc1ccccc1Cl,inactive,inactive,inactive
COC(=O)[C@@H]1CCCC1=O,inactive,inactive,inactive
O=C(N[C@@H]1C=C[C@@H](CC(=O)N2CCOCC2)O[C@H]1CO)c1ccccn1,inactive,inactive,inactive
COc1ccc(S(=O)(=O)Nc2cccc3c2O[C@@H](CN(C)Cc2ccncc2)[C@@H](C)CN([C@@H](C)CO)C3=O)cc1,inactive,inactive,inactive
